± gives the standard deviation of the averaged measurements. Over roughly 33,000 sequences, “E-score (dimensionless, -0.5 to 0.5)” has its median near -0.046; the highest 2% begin near 0.36. Some of the results follow.
system: T1, SpTbr T-box DNA-binding domain (GST fusion); experiment: PBM E-score of 8-mer (E-score (dimensionless, -0.5 to 0.5)); Tbr is Tbrain of the sea star Patiria miniata (Pm) or the sea urchin Strongylocentrotus purpuratus (Sp); higher = stronger binding preference; most listed sequences are background and not binding sites; conditions: the construct has about 5 more residues each side
T1 sequence: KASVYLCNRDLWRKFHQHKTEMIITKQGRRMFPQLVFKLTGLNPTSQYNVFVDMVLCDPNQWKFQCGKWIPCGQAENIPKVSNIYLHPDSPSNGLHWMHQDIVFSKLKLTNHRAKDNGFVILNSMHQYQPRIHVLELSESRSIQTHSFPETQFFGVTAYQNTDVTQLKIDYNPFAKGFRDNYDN
In short: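 GST-fused Tbr T-box DNA-binding domains (the whole T-box plus about five flanking residues) were expressed in BL21 E. coli at 20 °C and purified by glutathione affinity chromatography. Universal Agilent oligonucleotide arrays were made double-stranded by primer extension, incubated with 200 nM protein in PBS (pH 7.5), then scanned and quantified. Every ungapped 8-mer was scored from probe intensities. The Universal PBM Analysis Suite gave each word an enrichment E-score, averaged over duplicate arrays.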

Sequence	PBM E-score of 8-mer
ACTCCGAA	0.0524 ± 0.019
ACTATTAG	-0.152 ± 0.02
CATGTAAA	-0.0267 ± 0.0095
TCCCCCCA	-0.169 ± 0.019
CAAATGAA	-0.373 ± 0.021
AATCCTAG	-0.3099 ± 0.0022
GCCTTGAA	-0.074 ± 0.026
GCGGTTTA	0.0197 ± 0.047
ATGCGATA	0.0476 ± 0.028
ATGCGAGG	0.156 ± 0.03
CCCGCAGA	-0.204 ± 0.023
AAAACCCC	-0.202 ± 0.063
TCTACACA	0.117 ± 0.018
ATAGTTTG	-0.0682 ± 0.0097
AAGTTCCA	-0.133 ± 0.039
CAAGGGCC	-0.228 ± 0.036
AGCCACGC	0.132 ± 0.097
AAATTGCC	-0.133 ± 0.049
GAGGCTCC	-0.0609 ± 0.00097
TAAAGTTA	-0.146 ± 0.039
CCGCGACC	0.0624 ± 0.069
ATGGCTCC	-0.179 ± 0.012

Sequence	PBM E-score of 8-mer
CCCGGTCG	-0.0918 ± 0.028
AGCTAGAA	-0.0692 ± 0.023
AGCTGAGA	0.188 ± 0.031
CAGCAACG	0.0905 ± 0.024
GGACGACC	-0.348 ± 0.063
AAACGTTC	-0.0703 ± 0.0091
CGATTGCC	-0.0474 ± 0.017
CGCCGCAA	-0.0243 ± 0.024
AGTGCACG	-0.0198 ± 0.047
AGGTTTTA	-0.123 ± 0.026
CAATATGC	0.115 ± 0.013
ATCGCGTC	0.194 ± 0.021
ACTTGACT	0.0832 ± 0.1
CGCTCCTA	-0.00077 ± 0.011
AGCAAAAG	-0.191 ± 0.046
CCTAGAAA	-0.133 ± 0.0055
CTCGATAC	-0.0938 ± 0.055
AAGTGTAT	0.0229 ± 0.032
CCTATCAA	-0.102 ± 0.079
CAGCGGCG	0.0538 ± 0.12
TACTTAAA	-0.211 ± 0.062
CGCAGGAA	-0.0834 ± 0.04

Sequence	PBM E-score of 8-mer
AACGCTGA	0.0629 ± 0.00085
TGTAAAAA	-0.00039 ± 0.062
CAGGATGA	-0.252 ± 0.01
AACTAGCT	0.0492 ± 0.011
ATGCGTTC	-0.223 ± 0.02
ATCGGAGA	-0.127 ± 0.025
GAACGGCC	-0.0349 ± 0.059
AGTGCTAG	0.265 ± 0.049
GTGAACAA	0.255 ± 0.026
AATCTGTC	0.205 ± 0.027
ACGATACA	0.059 ± 0.027
ACTACCCC	-0.293 ± 0.066
AAACAGGG	-0.109 ± 0.011
ACCCCGAA	0.0131 ± 0.062
AAGTCCTA	-0.213 ± 0.025
ACGCTTGC	0.222 ± 0.011
AAAGACGC	0.0124 ± 0.035
TATCTCCA	-0.2344 ± 0.0019
CTATACAC	0.0341 ± 0.019
CTACTTGC	0.117 ± 0.025
AGAGGACG	-0.0797 ± 0.036
CCTGCCAA	0.128 ± 0.013

Sequence	PBM E-score of 8-mer
AGAAGGCG	0.303 ± 0.019
CTGGATCC	-0.0828 ± 0.0051
GGGTGGGA	0.271 ± 0.029
AATACGGT	-0.0647 ± 0.0054
GAACTCTC	-0.086 ± 0.033
GATCCTTA	-0.249 ± 0.0052
ACACGCAT	0.219 ± 0.0094
CACCAAAC	0.292 ± 0.036
ATTACTTG	0.0509 ± 0.038
ATGCGCTG	-0.00652 ± 0.078
CCCGTGGA	-0.0448 ± 0.005
CCCCCCAA	-0.135 ± 0.0046
GAGGAACA	0.0561 ± 0.021
CCGCCGTA	-0.262 ± 0.041
CTGTGACC	0.142 ± 0.026
GCGCCTAC	0.157 ± 0.01
AACCAGGA	-0.205 ± 0.014
TAGCAAAA	0.00702 ± 0.059
GTGACCAC	0.277 ± 0.039
CCTAGACC	-0.178 ± 0.029

Reference: the supplement of paper PMC4166925
